# Measured values published in publication PMC4336329 (PLoS ONE, 2015).
# The whole screen tested about 310,000 compounds, of which about 14,000 (4.5%) showed an effect of 50% or more. The effect is printed as a negative number. Some of the results follow.
# Molecular target: human ether-à-go-go-related gene (hERG) potassium channel (human, UniProt Q12809)
# Assay: primary screen, population patch clamp on CHO cells stably expressing hERG
# 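Note: peak tail current of the secondary pulse compared with the same well before compound.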
# Sequence of human ether-à-go-go-related gene (hERG) potassium channel (Q12809 whole entry, looked up): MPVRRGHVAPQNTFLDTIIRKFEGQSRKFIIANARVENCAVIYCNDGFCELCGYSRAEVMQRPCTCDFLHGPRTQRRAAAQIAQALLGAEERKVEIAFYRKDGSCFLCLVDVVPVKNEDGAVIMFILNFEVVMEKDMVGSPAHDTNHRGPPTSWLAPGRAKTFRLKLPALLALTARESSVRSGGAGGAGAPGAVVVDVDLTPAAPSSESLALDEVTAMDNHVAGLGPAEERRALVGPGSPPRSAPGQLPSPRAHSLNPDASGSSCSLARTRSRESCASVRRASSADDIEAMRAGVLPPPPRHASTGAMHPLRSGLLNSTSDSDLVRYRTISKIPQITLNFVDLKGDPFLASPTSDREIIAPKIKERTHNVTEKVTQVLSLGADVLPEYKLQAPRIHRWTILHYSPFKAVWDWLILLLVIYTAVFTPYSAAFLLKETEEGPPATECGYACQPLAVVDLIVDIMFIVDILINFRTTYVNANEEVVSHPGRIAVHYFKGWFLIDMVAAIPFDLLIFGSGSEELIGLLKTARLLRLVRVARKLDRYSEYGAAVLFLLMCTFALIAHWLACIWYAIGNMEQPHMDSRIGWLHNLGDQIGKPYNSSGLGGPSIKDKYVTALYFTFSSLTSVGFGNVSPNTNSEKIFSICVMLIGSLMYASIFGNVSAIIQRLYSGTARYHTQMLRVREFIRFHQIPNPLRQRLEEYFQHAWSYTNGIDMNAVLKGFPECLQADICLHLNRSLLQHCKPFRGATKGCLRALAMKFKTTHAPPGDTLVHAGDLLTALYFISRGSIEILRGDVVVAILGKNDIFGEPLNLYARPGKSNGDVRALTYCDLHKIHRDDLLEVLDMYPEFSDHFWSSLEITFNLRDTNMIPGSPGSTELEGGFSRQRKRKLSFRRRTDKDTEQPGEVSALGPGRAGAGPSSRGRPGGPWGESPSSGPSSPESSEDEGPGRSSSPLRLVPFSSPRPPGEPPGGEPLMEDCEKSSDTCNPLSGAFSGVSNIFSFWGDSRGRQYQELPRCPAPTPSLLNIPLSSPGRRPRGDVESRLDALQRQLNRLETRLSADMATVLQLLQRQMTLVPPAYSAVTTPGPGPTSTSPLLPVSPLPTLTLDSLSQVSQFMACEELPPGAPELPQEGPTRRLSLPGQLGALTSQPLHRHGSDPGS
row,Compound,"hERG current change (%, negative = inhibition) at 10uM"
1,N[C@@H](Cc1cc(I)c(Oc2cc(I)c(O)c(I)c2)c(I)c1)C(=O)O,3.25%
2,Cc1occc1-c1nnc(SCC(=O)c2ccc(Cl)cc2)n1CC1CCCO1 (stereo not shown),-65.1%
3,CC(C)CN(C(=O)CSc1nnc2c(Cl)cc(C(F)(F)F)cn12)C1CCS(=O)(=O)C1 (stereo not shown),-4.09%
4,COc1cc(Br)cc2cc(C(=O)N3CCCCC3C)c(=O)oc12 (stereo not shown),4.25%
5,Cn1/c(=N\NC(=O)C2CCCCC2)sc2ccccc21,23%
6,CCC(=O)Nc1c2c(nn1-c1ccc(F)cc1)CS(=O)(=O)C2,6.37%
7,CNS(=O)(=O)c1cccc(C(=O)OCC(=O)Nc2cc(F)ccc2F)c1,-36.7%
8,COc1ccccc1N1CCN(C(=O)c2ccc(-c3ccc(Cl)cc3)o2)CC1,-7.22%
9,O=C(CSc1nc2ccccc2c(=O)n1-c1ccc(Cl)cc1)N/N=C/C=C/c1ccccc1[N+](=O)[O-],-4.34%
10,O=C(CN1CCN(C(=O)c2ccco2)CC1)N1CCc2[nH]c3ccccc3c2C1,-18.5%
11,COc1ccc(CNC(=O)CCNS(=O)(=O)c2cc(Br)cnc2N)cc1,-1.97%
12,CCOC(=O)C1=C(C)N=c2s/c(=C/c3cccc([N+](=O)[O-])c3O)c(=O)n2C1c1ccc(OC)cc1OC (stereo not shown),21.6%
13,CCOC(=O)c1sc(NC(=O)CCN2C(=O)C3CCCCC3C2=O)cc1C (stereo not shown),-7.92%
14,COc1ccc(CNC(=O)CN(C(=O)c2cc3sccc3n2C)C2CCCC2)cc1,-0.866%
15,Cc1ccc2[nH]c(C)c(CC(=O)O)c2c1,39.7%
16,Cc1ccc(C(=O)N2CCCC2)cc1S(=O)(=O)Nc1cccc(C)c1C,-22.4%
17,O=C(O)c1ccc(Nc2cnc3ccccc3n2)cc1,1.09%
18,N#Cc1ccc(C23CC4CC(CC(C4)C2)C3)[nH]c1=O,-2.13%
19,COc1cc2ccccc2cc1C(=O)Nc1ccc(N2CCN(C)CC2)cc1,-10.4%
20,O=C(Nc1cccc(F)c1)Nc1ccnn1C1CCN(C(=O)CCN2CCCO2)CC1,-8.39%
21,C#CCNC(=O)C1=C[C@@H](C2CCCCC2)C[C@@H](OCc2ccc(CO)cc2)O1,-12.6%
22,COc1cc2nc(NC(=O)c3ccco3)sc(=O)c2cc1OC,-6.97%

row,Compound,"hERG current change (%, negative = inhibition) at 10uM"
1,CN1/C(=C\C=N\O)C(C)(C)c2ccccc21,17.1%
2,Cc1ccc(NC(=O)C[n+]2ccccc2)cc1[N+](=O)[O-].[Cl-],2.48%
3,O=C(NCc1cccnc1)C1CCN(S(=O)(=O)N2CCOCC2)CC1,-5.95%
4,O=C(COC(=O)C1CCC1)Nc1cc(S(=O)(=O)N2CCCCC2)ccc1Cl,-15.8%
5,C=CCSc1nnc2nc3[nH]c4c(C)cccc4c3nn12,4.32%
6,COC(=O)c1ccc(COc2ccc(/C=C(\C#N)c3nc4ccccc4[nH]3)cc2OC)o1,2.96%
7,COc1ccccc1NC(=O)CSc1nnc(-c2ccco2)n1Cc1ccco1,-65.4%
8,CN(C(=O)CCN1C(=O)c2ccccc2C1=O)C1CCCCC1,0.926%
9,O=C(c1cccn(Cc2ccc(Cl)c(Cl)c2)c1=O)N1CCOCC1,-5.03%
10,CCN1CCN(C(=O)C2CC(c3ccc(F)cc3)=NO2)CC1 (stereo not shown),-9.34%
11,CN1C(C(=O)Nc2ccccn2)=C(O)c2ccccc2S1(=O)=O,-4.55%
12,O=C(CS(=O)(=O)c1ccc2ccccc2c1)N1CCCCCC1,2.23%
13,COc1cccc(C(=O)Nc2nnc(SCC(=O)NC3CC3)s2)c1,5.18%
14,COc1cccc(Nc2ccccc2C(=O)O)c1,19.2%
15,Cc1cc(Cl)ccc1OC(C)C(=O)Nc1ccc(S(=O)(=O)Nc2cnc3ccccc3n2)cc1 (stereo not shown),5.55%
16,CC(C)(C)c1nnc(NC(=O)CCS(=O)(=O)Cc2ccccc2)s1,10.8%
17,NC(=O)N/N=C/c1coc2ccc3ccccc3c2c1=O,12.3%
18,CCc1c(C)nc(SCC(=O)Nc2ccc(Br)cc2)[nH]c1=O,-1.51%
19,Cc1[nH]n(-c2nc(-c3ccccc3F)cc(=O)[nH]2)c(=O)c1CCO,12.4%
20,CCOc1cc(S(=O)(=O)N(CC)CC)c(OCC)cc1-n1cnnn1,-27.6%
21,COc1cccc(CNC(=O)N[C@@H](CC(C)C)C(=O)O)c1,10.9%
22,CNc1ccc(C(=O)N2CCN(S(=O)(=O)c3ccc4c(c3)OCCCO4)CC2)cc1[N+](=O)[O-],-31.9%

row,Compound,"hERG current change (%, negative = inhibition) at 10uM"
1,C=CCCC(=O)N1CCC(n2nccc2NC(=O)c2ccccc2C)CC1,-32.1%
2,Cc1ccc(/C=C2\SC(=S)N(c3cccnc3)C2=O)o1,6.67%
3,COc1ccc(Cl)cc1C(=O)Nc1nc(C)cc(C)n1,15.2%
4,O=C(O)C1C2C=CC(C2)C1C(=O)NCc1cccnc1 (stereo not shown),-6.8%
5,O=C1CCC(C(=O)N2CCCCO2)CN1CCc1ccccc1 (stereo not shown),-8.39%
6,Cc1nc2cc(C(F)(F)F)ccc2n1C1CCN(CC(=O)N2CCOCC2)CC1,-44.4%
7,O=C1NNC(=O)C1c1ccccc1,25.7%
8,c1ccc(Cn2c(Nn3cnnc3)nc3ccccc32)cc1,-26.6%
9,COc1cc(CNCCc2ccc(S(N)(=O)=O)cc2)ccc1OCC(=O)N1CCCCC1.Cl,23.3%
10,O=[N+]([O-])c1ccc(-n2nncc2-c2ccccc2)cc1,-29.4%
11,COc1cc(C(=O)OCC(=O)Nc2cccc(S(=O)(=O)N3CCCC3)c2)ccc1OCC(C)C,-2.3%
12,Cc1nc2cc(NS(=O)(=O)c3ccc(Br)cc3)ccc2n1C,1.73%
13,Cc1cc(=O)oc2cc(NS(=O)(=O)c3ccc(F)cc3)ccc12,18.3%
14,Cc1ccccc1CSCC(=O)N1CCN(c2ccccc2)CC1,-35.5%
15,C=CCNC(=O)c1onc(CSc2ccccn2)c1C(=O)NCC=C,-7.02%
16,S=C(NCc1cccs1)Nc1ccccc1,7.71%
17,O=C(COC(=O)c1ccccc1C(=O)c1ccccc1)Nc1cccc([N+](=O)[O-])c1,-20.5%
18,Cc1nc(CN2CCN(C(=O)NC3(c4ccccc4)CC3)CC2)cs1,-1.15%
19,Cc1ccc(NC(=O)C2CCCN2C(=O)Oc2ccccc2)c(C)c1 (stereo not shown),11.1%
20,OCCOc1ccc(CN2CCN(CCCc3ccccc3)C(CCO)C2)cc1 (stereo not shown),-63.3%
21,O=C(NCc1ccccc1)c1ccc(Cn2cc(C(F)(F)F)ccc2=O)cc1,-24.4%
22,CC(C)Sc1nnc2n(CCc3ccccc3)c(=O)c3c4c(sc3n12)COC(C)(C)C4,4.77%

row,Compound,"hERG current change (%, negative = inhibition) at 10uM"
1,CCN(CC)c1nc2c(c(=O)[nH]c(=O)n2C)n1Cc1ccccc1Cl,9.51%
2,CCO.COc1cc(C2C(C#N)=C(N)N(N(C)C)C3=C2C(=O)CC(C)(C)C3)ccc1O (stereo not shown),-1.14%
3,O=Nc1c(-c2ccccc2)cc2ccccn12,15.4%
4,CN1CCCN(C(=O)c2ccc(Cl)c(S(=O)(=O)N(C)c3ccccc3)c2)CC1.Cl,-12.6%
5,O=C(N=C1SC2CS(=O)(=O)CC2N1CCc1ccc(F)cc1)C1CCCCC1 (stereo not shown),18.6%
6,CN(C)CCOCCOc1ccccc1-c1ccccc1.O=C(O)C(=O)O,-17.7%
7,CCOc1ccc(-c2ccc(SCC(=O)NC3CCCCC3)nn2)cc1,20%
8,CC(=O)c1cc2c(cc1NS(=O)(=O)c1ccccc1F)OCO2,-14.6%
9,CN1C(=O)/C(=C\c2ccncc2)SC1=Nc1ccccc1,-11.2%
10,COc1ccc(NC(=O)c2nc(-n3nc(C)cc3C)ccc2Cl)cc1Cl,9.39%
11,COc1ccc(/C=N/Nc2nc3ccccc3[nH]2)cc1OC,-21.8%
12,CCOc1ccc(C(=O)N2CCN(c3ccccn3)CC2)cc1,-26.7%
13,Cc1ccc(NC2=CC(=O)CCC2)cc1C,-2.29%
14,Cc1ccc(C)c(C(=O)CCC(=O)N2CCN(c3ncccn3)CC2)c1,2.86%
15,Cc1ccccc1OCC(=O)N(Cc1cccs1)C1CCS(=O)(=O)C1 (stereo not shown),-27.8%
16,CCN(CC)C(=S)SCC(=O)Nc1ccc(S(N)(=O)=O)cc1,3.17%
17,COc1cc(CNCc2cc(OC)ccc2OC)cc(OC)c1.O=C(O)C(=O)O,5.79%
18,Cc1ccc(NC(=O)N2CCC(NC(=O)C(C)(C)C)CC2)cc1,10.1%
19,COc1cc(C)nc(Oc2ccc(OCCOc3ccc(C)cc3)nn2)n1,-3.3%
20,COCCN(CCOC)c1ncc(Cl)c(C(=O)c2c(C)cc3ccccn23)n1,-4.6%
21,O=C(CSc1nnc(-c2ccccc2)n1Cc1ccccc1)N1CCCC1,6.79%
22,Cc1cccc(/C=N/N(CCO)C2=NS(=O)(=O)c3ccccc32)c1,-19.8%
